Source: US5002959A, “BU-4146T antibiotic” (Bristol-Myers Squibb Company, priority 1989, dated 1991)

System: melanotic melanoma B16
Experiment: In vivo antitumor activity against B16 melanoma (ip)

With `C/C(=C\C(C)C(=O)CC(O)CC1CC(=O)NC(=O)C1)C1OC(=O)/C=C/CC/C=C/C=C\C1C` (stereo not shown) [BU-4146T] the “maximum T/C” value was 145%.
